The labels stand for the following.
B1: unnamed (peptide)
chain: SPAPQPPVL
B2: unnamed (peptide)
chain: KPRTPFTTAQL
B3: unnamed (peptide)
chain: MPHVPITTL
B4: unnamed (peptide)
chain: GPNGGIVTSL
B5: unnamed (peptide)
chain: YPRPLLIAF
B6: unnamed (peptide)
chain: RPFADVLSL
B7: unnamed (peptide)
chain: MPFPNIRSAEL
B8: unnamed (peptide)
chain: SPFLLGRAL
B9: unnamed (peptide)
chain: IPDHFRPPL
B10: unnamed (peptide)
chain: TPAPRPLLL
B11: unnamed (peptide)
chain: LPYKAGLSL
B12: unnamed (peptide)
chain: RPYHTIIEI
B13: unnamed (peptide)
chain: MPSQFRDIL
B14: unnamed (peptide)
chain: RPPYYTPNQL
B15: unnamed (peptide)
chain: SPSQPWQRL
B16: unnamed (peptide)
chain: RPITDSPVL
B17: unnamed (peptide)
chain: QPQGPPWLAL
B18: unnamed (peptide)
chain: IPAYKLETL
B19: unnamed (peptide)
chain: QPSVQPPL
B20: unnamed (peptide)
chain: RPAPLSAEL
B21: unnamed (peptide)
chain: GPQIPRAAL
B22: unnamed (peptide)
chain: RPLLKAITA
B23: unnamed (peptide)
chain: HPIQVQPGRIL
B24: unnamed (peptide)
chain: FPRNNISYL
B25: unnamed (peptide)
chain: APQWPIIAF
B26: unnamed (peptide)
chain: RPKLPEDPLL
B27: unnamed (peptide)
chain: LPRREGYEF
B28: unnamed (peptide)
chain: RPIPQWIRM
B29: unnamed (peptide)
chain: MPRGPTLGH
B30: unnamed (peptide)
chain: TARPPGYEF
B31: unnamed (peptide)
chain: QPVPRSVL
B32: unnamed (peptide)
chain: PAWPHRGL
B33: unnamed (peptide)
chain: VPSEPKLSL
B34: unnamed (peptide)
chain: FPRVTTVSEL
B35: unnamed (peptide)
chain: QPRDALGDSL
B36: unnamed (peptide)
chain: RPTGGVGAVAL
B37: unnamed (peptide)
chain: RPSSQYIVAL
B38: unnamed (peptide)
chain: RPFGSISRIYL
B39: unnamed (peptide)
chain: RPDDKRILEF
B40: unnamed (peptide)
chain: APRLASILTSA
B41: unnamed (peptide)
chain: GPTWHNLAL
B42: unnamed (peptide)
chain: YPRSILTSL
B43: unnamed (peptide)
chain: GPMNLRAAF
B44: unnamed (peptide)
chain: RPAGPQLFL
B45: unnamed (peptide)
chain: APSSPRPALP
B46: unnamed (peptide)
chain: VPRPPSLL
B47: unnamed (peptide)
chain: SPWLHAPSL
B48: unnamed (peptide)
chain: APRTVALTALL
B49: unnamed (peptide)
chain: AVILRALSL
B50: unnamed (peptide)
chain: RPGWLTVSL
B51: unnamed (peptide)
chain: APRLQSEVAEL
B52: unnamed (peptide)
chain: IPNLRDSL
B53: unnamed (peptide)
chain: APRPLQAGPAM
B54: unnamed (peptide)
chain: LPNVGKSSL
B55: unnamed (peptide)
chain: APAPAAQRL
B56: unnamed (peptide)
chain: SPRLLEVTNTI

The full ranking holds about 1,400 sequences; the median of “thermal melting temperature (Tm) of peptide-HLA complex” is about 60, and the lowest 2% start at about 45. The list shows a part of the results.
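Also: cell lysates heated 10 min at 37–73 °C, remaining pHLA pulled down with pan-class I antibody, peptides quantified by DIA-MS versus 37 °C, Tm where half the complex is lost.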

In this assay the target is HLA-B*07:02. Put plainly: thermal melting temperature (Tm) of peptide-HLA complex; higher = more thermostable pHLA complex. The settings on record: C1R-B*07:02.
Regarding B1, the thermal melting temperature came out at 63.3 °C.

Take B2: the thermal melting temperature came to 45.6 °C.

In turn, B3 came in with a thermal melting temperature of 61.3 °C.

Regarding B4, the thermal melting temperature is 62.8 °C.

B5 showed a thermal melting temperature of 62 °C.

Sequence B6 showed a thermal melting temperature of 61.8 °C.

Turning to B7, the thermal melting temperature came to 58.2 °C.

In turn, B8 displayed a thermal melting temperature of 61.7 °C.

Sequence B9 gave a thermal melting temperature of 60.4 °C.

As to B10, the thermal melting temperature amounted to 61.5 °C.

The sequence B11 came in with a thermal melting temperature of 61 °C.

As for B12, the thermal melting temperature came out at 56.7 °C.

As for B13, the thermal melting temperature worked out at 63.4 °C.

As for B14, the thermal melting temperature is 58.6 °C.

With B15, the thermal melting temperature came to 58.4 °C.

Sequence B16 came in with a thermal melting temperature of 59.6 °C.

Sequence B17 gave a thermal melting temperature of 60 °C.

B18 registered a thermal melting temperature of 63 °C.

In turn, B19 yielded a thermal melting temperature of 54.3 °C.

Regarding B20, the thermal melting temperature is 61.2 °C.

B21: the thermal melting temperature is 59.7 °C.

B22: the thermal melting temperature came to 60.6 °C.

For the sequence B23, the thermal melting temperature turned out to be 57.2 °C.

Take B24: the thermal melting temperature is 59.8 °C.

Turning to B25, the thermal melting temperature came to 65.6 °C.

In the case of B26, the thermal melting temperature came out at 60.6 °C.

In turn, B27 showed a thermal melting temperature of 54.9 °C.

B28: the thermal melting temperature came out at 52 °C.

Sequence B29 had a thermal melting temperature of 57.3 °C.

Turning to B30, the thermal melting temperature turned out to be 57.4 °C.

B31 had a thermal melting temperature of 51 °C.

Sequence B32 displayed a thermal melting temperature of 52.2 °C.

Sequence B33 gave a thermal melting temperature of 61.1 °C.

B34 registered a thermal melting temperature of 58.9 °C.

The sequence B35 gave a thermal melting temperature of 52.1 °C.

As for B36, the thermal melting temperature was 50.3 °C.

The sequence B37 displayed a thermal melting temperature of 58.5 °C.

Sequence B38 yielded a thermal melting temperature of 54.2 °C.

In turn, B39 returned a thermal melting temperature of 52.7 °C.

In turn, B40 yielded a thermal melting temperature of 62.4 °C.

Consider B41, for which the thermal melting temperature was 62.1 °C.

In turn, B42 displayed a thermal melting temperature of 63.8 °C.

Sequence B43 gave a thermal melting temperature of 62.1 °C.

B44 yielded a thermal melting temperature of 61.7 °C.

For the sequence B45, the thermal melting temperature came to 60.2 °C.

The sequence B46 registered a thermal melting temperature of 61.2 °C.

For B47, the thermal melting temperature came out at 54.8 °C.

Take B48: the thermal melting temperature was found to be 62.8 °C.

B49 showed a thermal melting temperature of 61.1 °C.

B50 returned a thermal melting temperature of 59.2 °C.

B51: the thermal melting temperature is 61.9 °C.

For B52, the thermal melting temperature turned out to be 61.4 °C.

On to B53, for which the thermal melting temperature turned out to be 60.1 °C.

Turning to B54, the thermal melting temperature was 54.1 °C.

B55 registered a thermal melting temperature of 56.9 °C.

B56: the thermal melting temperature worked out at 61 °C.

The values are drawn from the supplement of paper PMC7726561.
